The least precise scores are not listed. Not listed are two conditions whose scores span a narrow range. Read del as a deletion of the residues named and ins as an insertion between two positions. For part of these data: The data file names ogerin without a concentration.
B1: GPR68, Q15743 (parent)
chain: MGNITADNSSMSCTIDHTIHQTLAPVVYVTVLVVGFPANCLSLYFGYLQIKARNELGVYLCNLTVADLFYICSLPFWLQYVLQHDNWSHGDLSCQVCGILLYENIYISVGFLCCISVDRYLAVAHPFRFHQFRTLKAAVGVSVVIWAKELLTSIYFLMHEEVIEDENQHRVCFEHYPIQAWQRAINYYRFLVGFLFPICLLLASYQGILRAVRRSHGTQKSRKDQIQRLVLSTVVIFLACFLPYHVLLLVRSVWEASCDFAKGVFNAYHFSLLLTSFNCVADPVLYCFVSETTHRDLARLRGACLAFLTCSRTGRAREAYPLGAPEASGKSGAQGEEPELLTKLHPAFQTPNSPGSGGFPTGRLA

Tests used:
[1] = variants of: B1; assay: cAMP reporter score (Enrich2 score, wild type = 0); higher = more signal; HEK293T, FACS bins
[2] = variants of: B1; assay: surface expression score (Enrich2 score, wild type = 0); higher = more signal; HEK293T, FACS bins

MGNITADNSSMSCTIDHTIHQTLAPVVYVTVLVVGFPANCLSLYFLYLQIKARNELGVYLCNLTVADLFYICSLPFWLQYVLQHDNWSHGDLSCQVCGILLYENIYISVGFLCCISVDRYLAVAHPFRFHQFRTLKAAVGVSVVIWAKELLTSIYFLMHEEVIEDENQHRVCFEHYPIQAWQRAINYYRFLVGFLFPICLLLASYQGILRAVRRSHGTQKSRKDQIQRLVLSTVVIFLACFLPYHVLLLVRSVWEASCDFAKGVFNAYHFSLLLTSFNCVADPVLYCFVSETTHRDLARLRGACLAFLTCSRTGRAREAYPLGAPEASGKSGAQGEEPELLTKLHPAFQTPNSPGSGGFPTGRLA [G46L]
cAMP reporter score ([1]; pH 5.5): -1.56
cAMP reporter score ([1]; pH 6): -0.36
cAMP reporter score ([1]; pH 6, modulator: ogerin): -1.08
cAMP reporter score ([1]; pH 6.5, modulator: ogerin): -0.854
surface expression score [2]: -2.11

MGNITADNSSMSCTIDHTIHQTLAPVVYVTVLVVGFPANCLSLYFKYLQIKARNELGVYLCNLTVADLFYICSLPFWLQYVLQHDNWSHGDLSCQVCGILLYENIYISVGFLCCISVDRYLAVAHPFRFHQFRTLKAAVGVSVVIWAKELLTSIYFLMHEEVIEDENQHRVCFEHYPIQAWQRAINYYRFLVGFLFPICLLLASYQGILRAVRRSHGTQKSRKDQIQRLVLSTVVIFLACFLPYHVLLLVRSVWEASCDFAKGVFNAYHFSLLLTSFNCVADPVLYCFVSETTHRDLARLRGACLAFLTCSRTGRAREAYPLGAPEASGKSGAQGEEPELLTKLHPAFQTPNSPGSGGFPTGRLA [G46K]
cAMP reporter score ([1]; pH 5.5): -0.918
cAMP reporter score ([1]; pH 6, modulator: ogerin): -2.46
cAMP reporter score ([1]; pH 6.5, modulator: ogerin): -1.94
surface expression score [2]: -2.12

Source: the GPR68 mutational scans of Howard et al. (2025)
